B1: OR4K15 (parent)
chain: GUUAACGGUCAUAGGCCAUGGAAACUAGGAGCACCAUUUCGCUGCCAGUGAAGAAAUGAACAAAGAAAAUCUGGGCCAGGCAGGCAUCAAAAGAAAUAGUCUUGCGCUCAACCAGAAAGUCUGUAAUCAUUUUAAGGGUA

The source gives no read counts; variants with many changes may rest on few reads.

This data set covers variants of B1. Briefly: self-cleavage, relative activity (ratio to wild type); higher = more cleavage; in vitro, sequencing; the parent is a self-cleaving ribozyme.
Turning to A51G A56G A86G A135G, the self-cleavage is 0.69.

As for A51G A96C U97C A129G U130C, the self-cleavage worked out at 0.49.

On to U49C A117G U131C, for which the self-cleavage was found to be 1.78.

Regarding A52G G73A A95U, the self-cleavage was 0.2.

Turning to A52G A90G G106C U120A, the self-cleavage stood at 0.04.

Consider A52G A56G G73A A114U, for which the self-cleavage came to 0.04.

Turning to A52G A63G U72A, the self-cleavage was 0.26.

Turning to A52G U100A U127C, the self-cleavage stood at 0.4.

A52G A111G U120C: the self-cleavage stood at 0.01.

For A52G A66G A86G, the self-cleavage amounted to 1.21.

A52G U57G A64G: the self-cleavage was found to be 1.86.

In the case of G50A A68G U122A, the self-cleavage stood at 0.46.

For the variant U49C A63U A96U U108C, the self-cleavage turned out to be 0.

For A51G A116G A117G, the self-cleavage came out at 1.48.

In the case of A51G A54G C112A, the self-cleavage turned out to be 0.13.

As to A52G U72A A91G, the self-cleavage was found to be 0.1.

For A52G A55G U57A U87C U127A, the self-cleavage turned out to be 0.86.

For A51U C85A U131C, the self-cleavage worked out at 1.19.

Take A51U U72G G99A U132A: the self-cleavage stood at 0.08.

Turning to A52G A59U A66U U127C A135G, the self-cleavage came to 0.76.

Take A52G U70C A86C A92G A118G U131C: the self-cleavage is 0.05.

Regarding A51C A59G A82U, the self-cleavage stood at 0.12.

Take A52G A69G A116G: the self-cleavage is 0.46.

In the case of A51G A56G U87C A129G, the self-cleavage came to 0.35.

For the variant A51G A55U A59G, the self-cleavage worked out at 1.4.

Turning to U49C A82C A95G, the self-cleavage stood at 0.26.

In the case of U49C A64G U87C A92G A134G, the self-cleavage was found to be 0.88.

Regarding A52G A63G U103C, the self-cleavage was 0.41.

For the variant A51G U70C A82G, the self-cleavage worked out at 0.63.

With G50A A78U A96G U131C, the self-cleavage was found to be 0.31.

Regarding A51U G53A A78C, the self-cleavage was determined as 0.47.

Regarding A51G A52G A94G, the self-cleavage was 1.21.

Turning to A51G A59U A114U, the self-cleavage worked out at 0.11.

As for U49C A91G A114U A134G, the self-cleavage was determined as 0.06.

As to A52G A94G U97C, the self-cleavage stood at 0.88.

In the case of A51G A59G U108A, the self-cleavage is 0.02.

Consider A52G A56G A129C, for which the self-cleavage came to 0.78.

Turning to A52G A68G A82G A90G A110G U127C, the self-cleavage amounted to 0.01.

A51G A62G C88U: the self-cleavage came out at 1.47.

For A52G A78G A114G A126U U130C, the self-cleavage was found to be 0.06.

Regarding A51G A60U C88A, the self-cleavage amounted to 1.49.

For G50A A52G U103C A110U, the self-cleavage was 0.99.

Turning to A51G A60G A92G, the self-cleavage came to 1.77.

Consider A51U A68U A98G, for which the self-cleavage amounted to 1.15.

Take A51U A66U A114G U130C: the self-cleavage was determined as 0.1.

As for A51G A59G A140G, the self-cleavage is 0.57.

For the variant A51U A67G A68G U103G G106A, the self-cleavage is 0.02.

On to A51G U100C A110U, for which the self-cleavage was determined as 1.73.

For the variant A51G A55G A59G, the self-cleavage came to 2.01.

Regarding A52G A54U A69G A125C, the self-cleavage amounted to 0.59.

Turning to A51U C105U A125G, the self-cleavage turned out to be 0.04.

Regarding A51C A90G A98U U132A, the self-cleavage was 1.36.

In the case of U49C A68G U72C A126G U130C, the self-cleavage was 0.08.

For U49C A91G U108C A126G, the self-cleavage stood at 0.02.

A51G A60G A118G: the self-cleavage was found to be 0.85.

Turning to U49G A62G G83A A95G A110C, the self-cleavage was 0.3.

Turning to A52G A55G A116C, the self-cleavage is 0.01.

A51G A62G U97A: the self-cleavage came out at 0.85.

For the variant A51U A63G U108C, the self-cleavage stood at 0.02.

Take A52G A92U U130A A135G: the self-cleavage was 1.59.

Consider A51G A54G A55U A86G A126G U130C, for which the self-cleavage came out at 0.25.

On to G50A A51G A69G, for which the self-cleavage worked out at 1.23.

As to A51C A52G G73A A91G A118U U120C, the self-cleavage turned out to be 0.02.

Consider U49C U57C A86G, for which the self-cleavage worked out at 0.82.

On to A51U A64U A82G, for which the self-cleavage stood at 0.55.

Consider A52G A69G U87C, for which the self-cleavage came to 1.79.

As to U49C A118G U130C U139C, the self-cleavage was 0.19.

For the variant A51G A60U A68G U72A A96G, the self-cleavage is 0.12.

A52G G73A A114U U120C: the self-cleavage came to 0.02.

As for U49C A82G U100G, the self-cleavage is 0.77.

A51G A63G U130C: the self-cleavage was 1.46.

For A51G A66G A116U, the self-cleavage is 0.16.

Turning to U49C A92G C105G, the self-cleavage stood at 0.01.

Take A51G A66G A91G: the self-cleavage worked out at 0.79.

A52G A64G U122A: the self-cleavage was found to be 0.57.

Consider A52G A54G A59C U102C A117U, for which the self-cleavage stood at 1.48.

A51G U70C U139C: the self-cleavage is 1.41.

For U49C U57C U132C A135G, the self-cleavage came out at 0.95.

For A52G G58U G75A, the self-cleavage was found to be 0.04.

With U49C A66G A90G U130C, the self-cleavage came out at 0.12.

As for A51G A92G U97C A111G, the self-cleavage is 0.

Take A51G A96G U131C: the self-cleavage was 1.05.

A52G A54G G58U A64C A96G: the self-cleavage stood at 0.

The values are drawn from the RNAGym collection of RNA variant scans (doi:10.7554/elife.90254).
